These results are taken from paper PMC12820563.

This is one part of the list. The list includes weakly bound sequences.

The assay concerns the target T1, MBP-FoxP3dN (UniProt Q99JB6).
T1 sequence: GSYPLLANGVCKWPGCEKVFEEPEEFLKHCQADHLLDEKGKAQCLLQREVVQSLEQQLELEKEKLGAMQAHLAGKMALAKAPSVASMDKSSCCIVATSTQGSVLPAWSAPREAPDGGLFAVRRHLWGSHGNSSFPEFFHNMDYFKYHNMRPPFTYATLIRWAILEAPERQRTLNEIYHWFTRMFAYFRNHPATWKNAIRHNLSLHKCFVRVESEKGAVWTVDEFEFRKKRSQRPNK
As to the kind of experiment: PD-seq (MBP pull-down with sequencing). The conditions noted are these: 20 mM Tris-HCl pH 7.5, 100 mM NaCl, 1.5 mM MgCl2, 0.4 uM protein, 0.1 uM dsDNA library, 30 min, room temperature, amylose pull-down; high values mean tight binding; double strand, one strand shown.
With “GATGATTGTTCTCCCAGCTGATGAATTTTGGCCCTCGAGTAAACAAATTTTCCTAATCTTTCTGTTCAAGCGCCATCTAC”, the binding signal (RPM ratio (pull-down/input)) was determined as 0.473.
With “GATGATTGTTCTCCCAGCTGATGAATTTCCGCAATCGAGTAAACAAATTTTCCTAATCTTTCTGTTCAAGCGCCATCTAC” the figure was 3.14.
For the sequence “GATGATTGTTCTCCCAGCTGATGAATTACATCCCTCGAGTAAACAAATTTTCCTAATCTTTCTGTTCAAGCGCCATCTAC”, the binding signal (RPM ratio (pull-down/input)) amounted to 0.516.
With “GATGATTGTTCTCCCAGCTGATGAATTTCACCGATCGAGTAAACAAATTTTCCTAATCTTTCTGTTCAAGCGCCATCTAC” the figure was 0.33.
Take “GATGATTGTTCTCCCAGCTGATGAATTGCGACTTTCGAGTAAACAAATTTTCCTAATCTTTCTGTTCAAGCGCCATCTAC”: the binding signal (RPM ratio (pull-down/input)) is 2.77.
With “GATGATTGTTCTCCCAGCTGATGAATTTTCGGGTTCGAGTAAACAAATTTTCCTAATCTTTCTGTTCAAGCGCCATCTAC” the figure was 0.293; with “GATGATTGTTCTCCCAGCTGATGAATTGGAGCCGTCGAGTAAACAAATTTTCCTAATCTTTCTGTTCAAGCGCCATCTAC”, 0.341.
Next, “GATGATTGTTCTCCCAGCTGATGAATTCCAGAATTCGAGTAAACAAATTTTCCTAATCTTTCTGTTCAAGCGCCATCTAC”: 0.411; “GATGATTGTTCTCCCAGCTGATGAATTAATTCTTTCGAGTAAACAAATTTTCCTAATCTTTCTGTTCAAGCGCCATCTAC”: 0.267.
Next, “GATGATTGTTCTCCCAGCTGATGAATTCGTCACTTCGAGTAAACAAATTTTCCTAATCTTTCTGTTCAAGCGCCATCTAC”: 1.95; “GATGATTGTTCTCCCAGCTGATGAATTCGGCACGTCGAGTAAACAAATTTTCCTAATCTTTCTGTTCAAGCGCCATCTAC”: 1.12.
Consider “GATGATTGTTCTCCCAGCTGATGAATTATTCAGTTCGAGTAAACAAATTTTCCTAATCTTTCTGTTCAAGCGCCATCTAC”, for which the binding signal (RPM ratio (pull-down/input)) turned out to be 0.352.
Next, “GATGATTGTTCTCCCAGCTGATGAATTGAGTTCATCGAGTAAACAAATTTTCCTAATCTTTCTGTTCAAGCGCCATCTAC”: 0.506; “GATGATTGTTCTCCCAGCTGATGAATTGTTTAGGTCGAGTAAACAAATTTTCCTAATCTTTCTGTTCAAGCGCCATCTAC”: 4.04; “GATGATTGTTCTCCCAGCTGATGAATTGTAGTGTTCGAGTAAACAAATTTTCCTAATCTTTCTGTTCAAGCGCCATCTAC”: 1.85.
With “GATGATTGTTCTCCCAGCTGATGAATTATACTAGTCGAGTAAACAAATTTTCCTAATCTTTCTGTTCAAGCGCCATCTAC” the figure was 0.457.
With “GATGATTGTTCTCCCAGCTGATGAATTCGTTCTATCGAGTAAACAAATTTTCCTAATCTTTCTGTTCAAGCGCCATCTAC” the figure was 0.392; with “GATGATTGTTCTCCCAGCTGATGAATTGCCGCACTCGAGTAAACAAATTTTCCTAATCTTTCTGTTCAAGCGCCATCTAC”, 0.847.
In the case of “GATGATTGTTCTCCCAGCTGATGAATTATACTTATCGAGTAAACAAATTTTCCTAATCTTTCTGTTCAAGCGCCATCTAC”, the binding signal (RPM ratio (pull-down/input)) stood at 1.09.
With “GATGATTGTTCTCCCAGCTGATGAATTGCCGTGTTCGAGTAAACAAATTTTCCTAATCTTTCTGTTCAAGCGCCATCTAC” the figure was 0.831; with “GATGATTGTTCTCCCAGCTGATGAATTCCGTACTTCGAGTAAACAAATTTTCCTAATCTTTCTGTTCAAGCGCCATCTAC”, 0.536; with “GATGATTGTTCTCCCAGCTGATGAATTCGCGCCTTCGAGTAAACAAATTTTCCTAATCTTTCTGTTCAAGCGCCATCTAC”, 3.3.
Next, “GATGATTGTTCTCCCAGCTGATGAATTATAGGCTTCGAGTAAACAAATTTTCCTAATCTTTCTGTTCAAGCGCCATCTAC”: 0.414.
With “GATGATTGTTCTCCCAGCTGATGAATTGACTGCGTCGAGTAAACAAATTTTCCTAATCTTTCTGTTCAAGCGCCATCTAC” the figure was 0.522; with “GATGATTGTTCTCCCAGCTGATGAATTGGGGAAATCGAGTAAACAAATTTTCCTAATCTTTCTGTTCAAGCGCCATCTAC”, 0.351; with “GATGATTGTTCTCCCAGCTGATGAATTCATCGTGTCGAGTAAACAAATTTTCCTAATCTTTCTGTTCAAGCGCCATCTAC”, 1.04.
For “GATGATTGTTCTCCCAGCTGATGAATTAAACCCGTCGAGTAAACAAATTTTCCTAATCTTTCTGTTCAAGCGCCATCTAC”, the binding signal (RPM ratio (pull-down/input)) is 0.238.
Next, “GATGATTGTTCTCCCAGCTGATGAATTGGAAAGCTCGAGTAAACAAATTTTCCTAATCTTTCTGTTCAAGCGCCATCTAC”: 0.211.
With “GATGATTGTTCTCCCAGCTGATGAATTGCTTACGTCGAGTAAACAAATTTTCCTAATCTTTCTGTTCAAGCGCCATCTAC” the figure was 2.34.
With “GATGATTGTTCTCCCAGCTGATGAATTGTAGGGTTCGAGTAAACAAATTTTCCTAATCTTTCTGTTCAAGCGCCATCTAC” the figure was 0.662; with “GATGATTGTTCTCCCAGCTGATGAATTGAACTCATCGAGTAAACAAATTTTCCTAATCTTTCTGTTCAAGCGCCATCTAC”, 0.366.
As for “GATGATTGTTCTCCCAGCTGATGAATTAGTACGATCGAGTAAACAAATTTTCCTAATCTTTCTGTTCAAGCGCCATCTAC”, the binding signal (RPM ratio (pull-down/input)) was 0.4.
Next, “GATGATTGTTCTCCCAGCTGATGAATTCTGGCCTTCGAGTAAACAAATTTTCCTAATCTTTCTGTTCAAGCGCCATCTAC”: 1.63; “GATGATTGTTCTCCCAGCTGATGAATTGCGCGCATCGAGTAAACAAATTTTCCTAATCTTTCTGTTCAAGCGCCATCTAC”: 2.39; “GATGATTGTTCTCCCAGCTGATGAATTCTGCTGATCGAGTAAACAAATTTTCCTAATCTTTCTGTTCAAGCGCCATCTAC”: 1.82.
With “GATGATTGTTCTCCCAGCTGATGAATTGATAAGGTCGAGTAAACAAATTTTCCTAATCTTTCTGTTCAAGCGCCATCTAC” the figure was 0.242.
As for “GATGATTGTTCTCCCAGCTGATGAATTCGAAGAGTCGAGTAAACAAATTTTCCTAATCTTTCTGTTCAAGCGCCATCTAC”, the binding signal (RPM ratio (pull-down/input)) was found to be 0.237.
With “GATGATTGTTCTCCCAGCTGATGAATTTTTGAGGTCGAGTAAACAAATTTTCCTAATCTTTCTGTTCAAGCGCCATCTAC”, the binding signal (RPM ratio (pull-down/input)) was found to be 0.21.
With “GATGATTGTTCTCCCAGCTGATGAATTCTTTCCATCGAGTAAACAAATTTTCCTAATCTTTCTGTTCAAGCGCCATCTAC” the figure was 0.232.
Take “GATGATTGTTCTCCCAGCTGATGAATTCTAACTGTCGAGTAAACAAATTTTCCTAATCTTTCTGTTCAAGCGCCATCTAC”: the binding signal (RPM ratio (pull-down/input)) stood at 0.358.
With “GATGATTGTTCTCCCAGCTGATGAATTATTACGGTCGAGTAAACAAATTTTCCTAATCTTTCTGTTCAAGCGCCATCTAC” the figure was 0.339; with “GATGATTGTTCTCCCAGCTGATGAATTAAAAGAGTCGAGTAAACAAATTTTCCTAATCTTTCTGTTCAAGCGCCATCTAC”, 0.19; with “GATGATTGTTCTCCCAGCTGATGAATTATATAAATCGAGTAAACAAATTTTCCTAATCTTTCTGTTCAAGCGCCATCTAC”, 0.358.
Take “GATGATTGTTCTCCCAGCTGATGAATTGAAACGTTCGAGTAAACAAATTTTCCTAATCTTTCTGTTCAAGCGCCATCTAC”: the binding signal (RPM ratio (pull-down/input)) amounted to 0.304.
Next, “GATGATTGTTCTCCCAGCTGATGAATTCAGCCGATCGAGTAAACAAATTTTCCTAATCTTTCTGTTCAAGCGCCATCTAC”: 0.392.
Next, “GATGATTGTTCTCCCAGCTGATGAATTCTGCGCTTCGAGTAAACAAATTTTCCTAATCTTTCTGTTCAAGCGCCATCTAC”: 1.43; “GATGATTGTTCTCCCAGCTGATGAATTTGTTGTTTCGAGTAAACAAATTTTCCTAATCTTTCTGTTCAAGCGCCATCTAC”: 7.66.
Next, “GATGATTGTTCTCCCAGCTGATGAATTACCACTCTCGAGTAAACAAATTTTCCTAATCTTTCTGTTCAAGCGCCATCTAC”: 0.474.
On to “GATGATTGTTCTCCCAGCTGATGAATTCGTCCTGTCGAGTAAACAAATTTTCCTAATCTTTCTGTTCAAGCGCCATCTAC”, for which the binding signal (RPM ratio (pull-down/input)) stood at 0.644.
Next, “GATGATTGTTCTCCCAGCTGATGAATTCGTGTTCTCGAGTAAACAAATTTTCCTAATCTTTCTGTTCAAGCGCCATCTAC”: 1.84.
With “GATGATTGTTCTCCCAGCTGATGAATTCCCTAGCTCGAGTAAACAAATTTTCCTAATCTTTCTGTTCAAGCGCCATCTAC” the figure was 0.19; with “GATGATTGTTCTCCCAGCTGATGAATTCGTACATTCGAGTAAACAAATTTTCCTAATCTTTCTGTTCAAGCGCCATCTAC”, 0.579.
With “GATGATTGTTCTCCCAGCTGATGAATTCTTCCATTCGAGTAAACAAATTTTCCTAATCTTTCTGTTCAAGCGCCATCTAC” the figure was 0.269; with “GATGATTGTTCTCCCAGCTGATGAATTTGCGCTGTCGAGTAAACAAATTTTCCTAATCTTTCTGTTCAAGCGCCATCTAC”, 0.911.
With “GATGATTGTTCTCCCAGCTGATGAATTATAGTTCTCGAGTAAACAAATTTTCCTAATCTTTCTGTTCAAGCGCCATCTAC”, the binding signal (RPM ratio (pull-down/input)) came to 0.808.
Next, “GATGATTGTTCTCCCAGCTGATGAATTTCTGAGCTCGAGTAAACAAATTTTCCTAATCTTTCTGTTCAAGCGCCATCTAC”: 0.199; “GATGATTGTTCTCCCAGCTGATGAATTATGAACTTCGAGTAAACAAATTTTCCTAATCTTTCTGTTCAAGCGCCATCTAC”: 0.331; “GATGATTGTTCTCCCAGCTGATGAATTCCCTCTATCGAGTAAACAAATTTTCCTAATCTTTCTGTTCAAGCGCCATCTAC”: 0.317.
Next, “GATGATTGTTCTCCCAGCTGATGAATTGCTACGATCGAGTAAACAAATTTTCCTAATCTTTCTGTTCAAGCGCCATCTAC”: 0.59; “GATGATTGTTCTCCCAGCTGATGAATTACATTTCTCGAGTAAACAAATTTTCCTAATCTTTCTGTTCAAGCGCCATCTAC”: 0.805; “GATGATTGTTCTCCCAGCTGATGAATTACGGTAGTCGAGTAAACAAATTTTCCTAATCTTTCTGTTCAAGCGCCATCTAC”: 0.513.
Next, “GATGATTGTTCTCCCAGCTGATGAATTCTTTATGTCGAGTAAACAAATTTTCCTAATCTTTCTGTTCAAGCGCCATCTAC”: 0.404.
As to “GATGATTGTTCTCCCAGCTGATGAATTTCATGGCTCGAGTAAACAAATTTTCCTAATCTTTCTGTTCAAGCGCCATCTAC”, the binding signal (RPM ratio (pull-down/input)) was 0.378.
